# Data as given in PMC4336329 (PLoS ONE, 2015).
# In all, about 310,000 compounds went through this assay and about 2,200 (0.71%) showed an effect of 50% or more. Effects have a minus sign here. This is one part of the list.
# Molecular target: human ether-à-go-go-related gene (hERG) potassium channel (human, UniProt Q12809)
# Test: primary screen, population patch clamp on CHO cells stably expressing hERG
# human ether-à-go-go-related gene (hERG) potassium channel, sequence (Q12809 whole entry, looked up): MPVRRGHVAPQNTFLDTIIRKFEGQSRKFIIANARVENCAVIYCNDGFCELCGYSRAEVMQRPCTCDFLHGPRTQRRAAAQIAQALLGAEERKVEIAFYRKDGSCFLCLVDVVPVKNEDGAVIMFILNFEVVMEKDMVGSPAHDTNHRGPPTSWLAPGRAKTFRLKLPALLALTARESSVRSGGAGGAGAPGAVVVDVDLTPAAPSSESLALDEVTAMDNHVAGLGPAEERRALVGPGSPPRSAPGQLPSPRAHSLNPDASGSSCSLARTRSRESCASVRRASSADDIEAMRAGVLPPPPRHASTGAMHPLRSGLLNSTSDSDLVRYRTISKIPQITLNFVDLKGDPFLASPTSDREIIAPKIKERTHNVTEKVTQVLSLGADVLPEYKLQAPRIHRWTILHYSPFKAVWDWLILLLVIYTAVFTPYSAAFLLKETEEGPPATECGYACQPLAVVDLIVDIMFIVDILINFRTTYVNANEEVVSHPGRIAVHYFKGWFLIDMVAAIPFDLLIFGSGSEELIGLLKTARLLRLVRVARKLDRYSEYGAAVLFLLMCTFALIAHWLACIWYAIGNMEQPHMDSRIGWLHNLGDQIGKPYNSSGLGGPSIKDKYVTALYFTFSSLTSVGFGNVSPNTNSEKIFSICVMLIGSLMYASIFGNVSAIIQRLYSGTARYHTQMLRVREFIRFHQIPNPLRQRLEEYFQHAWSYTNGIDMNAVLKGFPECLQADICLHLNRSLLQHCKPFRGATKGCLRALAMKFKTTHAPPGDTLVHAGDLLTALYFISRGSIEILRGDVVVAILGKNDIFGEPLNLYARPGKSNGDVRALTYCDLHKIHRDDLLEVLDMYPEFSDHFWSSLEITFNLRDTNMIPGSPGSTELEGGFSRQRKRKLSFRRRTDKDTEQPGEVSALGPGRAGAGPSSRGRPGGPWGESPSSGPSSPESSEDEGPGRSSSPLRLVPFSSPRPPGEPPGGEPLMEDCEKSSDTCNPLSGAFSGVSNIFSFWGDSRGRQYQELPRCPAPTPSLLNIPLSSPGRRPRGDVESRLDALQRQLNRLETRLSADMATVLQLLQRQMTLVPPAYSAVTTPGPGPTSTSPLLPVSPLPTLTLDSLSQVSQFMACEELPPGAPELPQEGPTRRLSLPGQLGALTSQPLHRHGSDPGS
row,Compound,"hERG current change (%, negative = inhibition) at 1uM"
1,CC(C)C(NC(=O)CC12CC3CC(CC(C3)C1)C2)C(=O)O (stereo not shown),6.39%
2,O=C(CC1Sc2ccccc2NC1=O)NCc1cccc(Cl)c1 (stereo not shown),13.6%
3,COc1cc2c(cc1OC)CN(S(=O)(=O)c1ccccc1F)CC2,9.63%
4,CCOc1ccc(/C=C2\CCC(C3CCCC3)C2=O)cc1OC (stereo not shown),16.8%
5,COc1ccc(OC)c(-c2csc(NC(=O)Cc3ccccc3F)n2)c1,12.9%
6,NS(=O)(=O)c1cccc(NC(=S)NCc2ccccc2)c1,8.87%
7,CCCSc1nc2c(c(=O)n1-c1ccc(OCC)cc1)SCC2,15.2%
8,CC1CCN(S(=O)(=O)c2ccc3c(c2)CCN3C(=O)CCC(=O)O)CC1,11.4%
9,CS(=O)(=O)c1ccc(NS(=O)(=O)c2ccc3ccccc3c2)cc1,12%
10,Clc1ccc(C2CC(c3cccs3)n3ncnc3N2)c(Cl)c1 (stereo not shown),4.09%
11,CC(=O)Nc1ccc(S(=O)(=O)NC2=C(N3CCN(Cc4ccccc4)CC3)C(=O)c3ccccc3C2=O)cc1,15.3%
12,CCOC(=O)N1CCC(NC(=O)c2cc(S(=O)(=O)N3CCCCC3)ccc2F)CC1,13.3%
13,O=C(CN1CCOCC1)N/N=C/c1ccc(C(=O)O)cc1,7.67%
14,Cc1ccccc1-n1nc(C)c2cc(C(=O)NC3CC3)sc21,2.92%
15,O=C(COC(=O)c1c[nH]c(=O)[nH]c1=O)Nc1ccccc1Br,10.9%
16,CN(C)c1nc(N)nc(-c2cccnc2)n1,2.93%
17,Fc1ccc(CNCCc2ccccc2F)cc1,12.1%
18,Cc1ccc(N2C(=S)NC3c4cc(Cl)ccc4OC2(C)C3C(=O)N(C)C)cc1 (stereo not shown),17.9%
19,Cc1ccc(S(=O)(=O)Cc2ccc(C(=O)N3CCC(C(N)=O)CC3)o2)cc1,22.5%
20,COc1ccc(N2CCN(C(=O)C3Cc4ccccc4CN3C(=O)c3ccccc3)CC2)cc1 (stereo not shown),9.95%

row,Compound,"hERG current change (%, negative = inhibition) at 1uM"
1,CCOC(=O)N1CCN(C(=O)c2ccc(OC)c(OC)c2)CC1,6.63%
2,CN(C)CCCN(Cc1ccccc1)C(=S)Nc1ccc(SC(F)F)cc1,-30.6%
3,O=C(NNc1ccccc1F)C1CCC1,12.6%
4,Cc1nc(=O)c(-c2ccccc2)c(C)n1-c1ccc(S(N)(=O)=O)cc1,-5.85%
5,CCn1ncc(C(=O)Nc2ccc([N+](=O)[O-])cc2OC)c1C,11.2%
6,CCOCCCNC(=O)CNC(=S)N(Cc1ccc(C)cc1)Cc1ccco1,4.01%
7,O=C1CC(Sc2ncccn2)C(=O)N1c1ccccc1C(F)(F)F (stereo not shown),13%
8,CCCCCCC(=O)N1CCCC(c2nc(-c3cccc(OC)c3)no2)C1 (stereo not shown),-10.4%
9,CC(Cn1cncn1)C(=O)N1CCN(S(=O)(=O)c2ccc(Cl)cc2)CC1 (stereo not shown),14%
10,O=C(c1cnccn1)N(c1ccccc1)C1(C(=O)NC2CCCCC2)CCCCC1,10.4%
11,COc1ccc(N2CCN(C(=O)CSc3nnc(NC(=O)C4CC4)s3)CC2)cc1,8.83%
12,COc1ccc(NS(=O)(=O)c2cn(C)cn2)cc1,11.7%
13,CSCC[C@H](NC(=O)N1CCn2c1nc1ccccc12)C(=O)NCc1ccco1,9.68%
14,O=C(NC1CCCCC1)C(c1ccncc1)N(C(=O)c1csnn1)c1ccccc1F (stereo not shown),6.21%
15,CCN1CCN(c2ccc(N)cc2)CC1,24%
16,COc1ccc2c(c1)c(C(=O)N/N=C/c1cccc(Br)c1)c(C)n2C,-4.28%
17,CCC(CC)NC(=O)COc1ccc(OC)cc1C=O,13.4%
18,COC(=O)C1=NNC(C(=O)c2ccco2)C1c1ccccc1 (stereo not shown),4.58%
19,O=C(/C=C/c1ccc(F)cc1)N1CCN(c2ncccn2)CC1,18.1%
20,CN1CCN(C(=S)c2cn(CCOc3ccccc3)c3ccccc23)CC1,7.29%

row,Compound,"hERG current change (%, negative = inhibition) at 1uM"
1,CCN(CC)S(=O)(=O)c1cccc(NC(=O)COC(=O)c2n[nH]c(=O)c3ccccc23)c1,14.5%
2,Cn1c(=O)[nH]c(=O)c2c1nc(Br)n2CCCO,11.8%
3,CCc1ccc(NC(=O)Nn2cnnc2)cc1,10.4%
4,CC(=O)c1ccc(NC(=O)CCCN2C(=O)C(c3ccccc3)Oc3cccnc32)cc1 (stereo not shown),6.1%
5,Cc1cc(NC(=O)/C(C#N)=C/c2ccco2)n(-c2ccccc2)n1,8.19%
6,O=C1CN=C(c2cccc(Br)c2)c2cc(Br)ccc2N1,0.318%
7,Cc1ccccc1NC(=O)C1c2ccccc2Oc2ccccc21,20.8%
8,COc1ccc(CC(=O)N(C)CC(=O)Nc2ccccc2SC)cc1,13%
9,CN(c1ncnc(N)c1[N+](=O)[O-])C1CCCCC1,12.5%
10,O=C(NC(Cc1ccccc1)C(=O)O)c1ccccc1 (stereo not shown),8.52%
11,C=CCN(CC=C)C(=O)Cn1cnc([N+](=O)[O-])n1,2.68%
12,CCN(c1ccc(NC(=O)CN2C(=O)NC3(CCOc4ccccc43)C2=O)cc1)C(C)C (stereo not shown),7.32%
13,Cn1c(SCC(=O)Nc2ccc3c(c2)OCCO3)nnc1C(F)(F)F,2.89%
14,CCCC(=Nc1ccccc1)C1=C(O)C(C(=O)OC)C(C)(C)CC1=O (stereo not shown),6.52%
15,CC1(C)C2CCC1(CS(=O)(=O)N1CCN(c3ccc(F)cc3)CC1)C(=O)C2 (stereo not shown),14.5%
16,Cc1ccnc(SC2CC(=O)N(c3ccc([N+](=O)[O-])cc3)C2=O)n1 (stereo not shown),8.69%
17,Cc1ccn2c(=O)nc(SCC(=O)Nc3ccc4c(c3)OCO4)nc2c1,10.1%
18,COCc1cc(N2CCOCC2)nc(SCc2ccc(Cl)cc2)n1,5.58%
